# Source: a collection of fitness landscapes (doi:10.1126/science.1257360)
# The list shows a part of the results.
# B1: PhoQ; a variant is named by its letters at X, in order, P23837 (parent)
# chain: MKKLLRLFFPLSLRVRFLLATAAVVLVLSLAYGMVALIGYSVSFDKTTFRLLRGESNLFYTLAKWENNKLHVELPENIDKQSPTMTLIYDENGQLLWAQRDVPWLMKMIQPDWLKSNGFHEIEADVNDTSLLLSGDHSIQQQLQEVREDDDDAEMTHSVAVNVYPATSRMPKLTIVVVDTIPVELKSSYMVWSWFIYVLSANLLLVIPLLWVAAWWSLRPIEALAKEVRELEEHNRELLNPATTRELTSLVRNLNRLLKSERERYDKYRTTLTDLTHSLKTPLXXLQXXLRSLRSEKMSVSDAEPVMLEQISRISQQIGYYLHRASMRGGTLLSRELHPVAPLLDNLTSALNKVYQRKGVNISLDISPEISFVGEQNDFVEVMGNVLDNACKYCLEFVEISARQTDEHLYIVVEDDGPGIPLSKREVIFDRGQRVDTLRPGQGVGLAVAREITEQYEGKIVAGESMLGGARMEVIFGRQHSAPKDE
# Variants of: B1
# Assay: enrichment ratio after two sorts for PhoP signalling (ratio (wild type AVST 3.29)); higher = more functional
# Conditions: with PhoP (E. coli)
row,Variant,enrichment ratio
1,YPMA,≤ 0.25
2,AWLC,≤ 0.25
3,NNTI,1.55
4,QSHY,8.12
5,YVCM,≤ 0.25
6,FGNG,≤ 0.25
7,PFMT,≤ 0.25
8,MLYA,≤ 0.25
9,FIAA,≤ 0.25
10,KVKQ,≤ 0.25
11,GFSN,≤ 0.25
12,HKFA,≤ 0.25
13,QQPH,≤ 0.25
14,WHHK,≤ 0.25
15,AAYL,≤ 0.25
16,VPDH,≤ 0.25
17,ESNT,≤ 0.25
18,GMAR,≤ 0.25
19,KYRF,≤ 0.25
20,YGVP,≤ 0.25
21,VYIS,≤ 0.25
22,LHRN,≤ 0.25
23,IAYF,≤ 0.25
24,WEHV,≤ 0.25

row,Variant,enrichment ratio
1,CFYP,≤ 0.25
2,ILIN,≤ 0.25
3,SCMT,9.91
4,RGWM,≤ 0.25
5,KSQA,≤ 0.25
6,EESA,≤ 0.25
7,APIY,≤ 0.25
8,KCTH,≤ 0.25
9,VWCK,≤ 0.25
10,VADW,≤ 0.25
11,RKHQ,≤ 0.25
12,TQFD,≤ 0.25
13,GTSD,≤ 0.25
14,AEWF,≤ 0.25
15,GPCP,≤ 0.25
16,YVTH,0.76
17,MIMA,≤ 0.25
18,FAKF,≤ 0.25
19,TGPE,≤ 0.25
20,NHPA,≤ 0.25
21,TQVP,≤ 0.25
22,SCTV,9.96
23,MHYV,≤ 0.25
24,PPRF,≤ 0.25

row,Variant,enrichment ratio
1,KPPE,≤ 0.25
2,DWFN,≤ 0.25
3,LVQH,≤ 0.25
4,TLSN,9.08
5,INHR,≤ 0.25
6,ERFE,≤ 0.25
7,VNET,≤ 0.25
8,ELII,≤ 0.25
9,ATSF,11.9
10,SLVQ,0.637
11,SHDF,≤ 0.25
12,KPTH,≤ 0.25
13,FFMD,≤ 0.25
14,PANP,≤ 0.25
15,GHQV,≤ 0.25
16,PHWM,≤ 0.25
17,GNDG,≤ 0.25
18,SPQV,≤ 0.25
19,ASKN,≤ 0.25
20,NYCD,≤ 0.25
21,QRHK,≤ 0.25
22,LTKG,≤ 0.25
23,PDMA,≤ 0.25
24,AVLY,0.623

row,Variant,enrichment ratio
1,HYSP,≤ 0.25
2,DCWN,≤ 0.25
3,SMMS,14.6
4,VFCP,≤ 0.25
5,HMLD,≤ 0.25
6,KTAN,≤ 0.25
7,GSNI,≤ 0.25
8,SVGC,0.96
9,GDPP,≤ 0.25
10,KTLS,≤ 0.25
11,FVAP,≤ 0.25
12,EQAY,≤ 0.25
13,LKCR,≤ 0.25
14,QIKK,≤ 0.25
15,WKMP,≤ 0.25
16,VPKN,≤ 0.25
17,ADFV,≤ 0.25
18,HHYL,≤ 0.25
19,PWNY,≤ 0.25
20,TCVM,0.289
21,NALY,≤ 0.25
22,KFGS,≤ 0.25
23,FLYC,≤ 0.25
24,KILP,≤ 0.25

row,Variant,enrichment ratio
1,PRSS,≤ 0.25
2,YMFR,≤ 0.25
3,VMFC,≤ 0.25
4,PLFL,≤ 0.25
5,EVGD,≤ 0.25
6,RKYG,≤ 0.25
7,MFYV,≤ 0.25
8,YGGP,≤ 0.25
9,HLFL,≤ 0.25
10,QHWI,≤ 0.25
11,MSPR,≤ 0.25
12,KMSK,≤ 0.25
13,SPEA,≤ 0.25
14,ECSQ,≤ 0.25
15,TYNG,≤ 0.25
16,YGMG,0.474
17,IWNE,≤ 0.25
18,RHNV,≤ 0.25
19,VLFW,≤ 0.25
20,LSFG,≤ 0.25
21,KVAE,≤ 0.25
22,LFTK,≤ 0.25
23,QYEP,≤ 0.25
24,NTFE,≤ 0.25

row,Variant,enrichment ratio
1,EKEE,≤ 0.25
2,YEMC,≤ 0.25
3,LWVY,≤ 0.25
4,EALD,≤ 0.25
5,QGGT,8.36
6,NKFD,≤ 0.25
7,STYK,≤ 0.25
8,HNKK,≤ 0.25
9,IVQL,≤ 0.25
10,GDPR,≤ 0.25
11,TQDM,≤ 0.25
12,NHFG,≤ 0.25
13,ELPG,≤ 0.25
14,SHFK,≤ 0.25
15,HREK,≤ 0.25
16,MKSP,≤ 0.25
17,WYVT,≤ 0.25
18,MLLA,≤ 0.25
19,GPGE,≤ 0.25
20,MLLG,≤ 0.25
21,ERYP,≤ 0.25
22,HPFL,≤ 0.25
23,FIMV,1.48
24,FTHC,≤ 0.25

row,Variant,enrichment ratio
1,ADSE,≤ 0.25
2,VKYL,≤ 0.25
3,LQFV,≤ 0.25
4,GKTL,≤ 0.25
5,EDSE,≤ 0.25
6,WYFK,≤ 0.25
7,FSKG,≤ 0.25
8,WDWG,≤ 0.25
9,NQIA,≤ 0.25
10,YITF,≤ 0.25
11,RRTM,≤ 0.25
12,EFTE,≤ 0.25
13,GEHD,≤ 0.25
14,IDWW,≤ 0.25
15,PYSW,≤ 0.25
16,RVPQ,≤ 0.25
17,KPAL,≤ 0.25
18,WSLI,6.6
19,FISL,≤ 0.25
20,EHPK,≤ 0.25
21,IART,≤ 0.25
22,SHIR,≤ 0.25
23,DICM,≤ 0.25
24,TFSD,≤ 0.25

row,Variant,enrichment ratio
1,PEFI,≤ 0.25
2,FRVM,≤ 0.25
3,KARA,≤ 0.25
4,AYQH,≤ 0.25
5,FTGV,≤ 0.25
6,QYCA,≤ 0.25
7,YSYY,≤ 0.25
8,QAWI,≤ 0.25
9,PCLQ,≤ 0.25
10,IQIH,≤ 0.25
11,EDRS,≤ 0.25
12,TIFL,≤ 0.25
13,SYPA,≤ 0.25
14,PHKH,≤ 0.25
15,KLCQ,≤ 0.25
16,IDLI,≤ 0.25
17,TFFR,≤ 0.25
18,VDGF,≤ 0.25
19,VVRI,≤ 0.25
20,VNLR,≤ 0.25
21,PEYC,≤ 0.25
22,YNKC,≤ 0.25
23,NVLA,≤ 0.25
24,PTPL,≤ 0.25

row,Variant,enrichment ratio
1,HRPV,≤ 0.25
2,EQWL,≤ 0.25
3,VNGY,≤ 0.25
4,GPHC,≤ 0.25
5,TIRL,1.25
6,NHIR,≤ 0.25
7,WPYF,≤ 0.25
8,IYPN,≤ 0.25
9,PDYR,≤ 0.25
10,CNSI,7.37
11,DVHC,≤ 0.25
12,GGFI,≤ 0.25
13,ITKY,≤ 0.25
14,LIHE,≤ 0.25
15,EYMQ,≤ 0.25
16,LYFD,≤ 0.25
17,QQFS,2.01
18,MFLN,≤ 0.25
19,QQFK,≤ 0.25
20,SSNP,≤ 0.25
21,FNAC,≤ 0.25
22,VKID,≤ 0.25
23,RTRF,≤ 0.25
24,HQDN,≤ 0.25

row,Variant,enrichment ratio
1,DFQS,≤ 0.25
2,HMKG,≤ 0.25
3,ENFH,≤ 0.25
4,HGQK,≤ 0.25
5,MHHM,≤ 0.25
6,HIHK,≤ 0.25
7,FMGQ,≤ 0.25
8,LMRI,≤ 0.25
9,RMQF,≤ 0.25
10,TKTW,≤ 0.25
11,LVRT,≤ 0.25
12,DATD,≤ 0.25
13,MVWR,≤ 0.25
14,DMWG,≤ 0.25
15,KAQT,≤ 0.25
16,FKCT,≤ 0.25
17,HTAK,≤ 0.25
18,YFQM,≤ 0.25
19,PGRL,≤ 0.25
20,RADL,≤ 0.25
21,GSGK,≤ 0.25
22,DCDD,≤ 0.25
23,HTTM,≤ 0.25
24,RCAV,≤ 0.25

row,Variant,enrichment ratio
1,RQHR,≤ 0.25
2,DFDF,≤ 0.25
3,GCTR,≤ 0.25
4,KEGS,≤ 0.25
5,LMRC,≤ 0.25
6,IELD,≤ 0.25
7,MYVS,≤ 0.25
8,NQAP,≤ 0.25
9,EKAD,≤ 0.25
10,LEDT,≤ 0.25
11,YIRG,≤ 0.25
12,YCEK,≤ 0.25
13,DYVG,≤ 0.25
14,PQVV,≤ 0.25
15,TMIF,≤ 0.25
16,TNLF,0.522
17,RWSV,≤ 0.25
18,YHFC,≤ 0.25
19,RIIM,≤ 0.25
20,SWVD,≤ 0.25
21,HKCQ,≤ 0.25
22,TMHF,1.51
23,DFWG,≤ 0.25
24,YMIW,≤ 0.25

row,Variant,enrichment ratio
1,NRER,≤ 0.25
2,YDCF,0.265
3,LQHE,≤ 0.25
4,VDRL,≤ 0.25
5,ARYC,≤ 0.25
6,IRTA,≤ 0.25
7,VRCA,≤ 0.25
8,MGVN,≤ 0.25
9,GYLE,≤ 0.25
10,TFRG,≤ 0.25
11,DNKR,≤ 0.25
12,LLGY,≤ 0.25
13,IARP,≤ 0.25
14,FWEL,≤ 0.25
15,VREA,≤ 0.25
16,YNEW,≤ 0.25
17,SYML,0.252
18,FYDA,≤ 0.25
19,NGEY,≤ 0.25
20,NWYG,≤ 0.25
21,LLIR,≤ 0.25
22,GSPA,≤ 0.25
23,KVLE,≤ 0.25
24,MACP,≤ 0.25

row,Variant,enrichment ratio
1,IEDQ,≤ 0.25
2,WLYH,≤ 0.25
3,LLFV,≤ 0.25
4,SWEG,≤ 0.25
5,RPWT,≤ 0.25
6,HPFM,≤ 0.25
7,FRRH,≤ 0.25
8,RRGR,≤ 0.25
9,SHCC,6.79
10,ILCW,≤ 0.25
11,PGFI,≤ 0.25
12,YDRW,≤ 0.25
13,DQNL,≤ 0.25
14,ACMA,34.1
15,IFPQ,1.04
16,WIVQ,≤ 0.25
17,DWGF,≤ 0.25
18,GCIL,10.2
